Measurements: the RNAGym collection of RNA variant scans (doi:10.1073/pnas.2313332121)
Variants at the background level are over-represented here.

B1: TPR 5TU (parent)
chain: GGAUCUUCUCGAUCUAACAAAAAAGACAAAUCUGCCACAAAGCUUGAGAGCAUCUUCGGAUGCAGAGGCGGCAGCCUUCGGUGGCGCGAUAGCGCCAACGUUCUCAACUAUGACACGCAAAACGCGUGCUCCGUUGAAUGGAGUUUAUCAUG

Variants of: B1
Experiment: polymerase ribozyme fitness, log enrichment relative to wild type (log ratio); higher = more active; in vitro selection for triplet polymerase activity
Outline: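 Input and output libraries were sequenced on Illumina after a single in vitro selection round, run in triplicate on PCR-built, transcribed mutant libraries of each subunit of a heterodimeric triplet polymerase ribozyme. Selection annealed libraries to a biotinylated primer, the partner subunit and triplets, incubated them frozen at −7 °C, then gel-excised extended constructs for streptavidin-bead capture and RT-PCR. Genotypes with ≥10 input reads and ≥1 read per output were kept. Fitness is the logarithm, taken in base 2, of genotype enrichment divided by wild-type enrichment, using inverse-variance-weighted replicate averages.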

| Variant | polymerase ribozyme fitness (log ratio) |
| --- | --- |
| G42C U148A | ≤ -4.2 |
| C43U C75G C87G | ≤ -4.2 |
| C43U G80C C95U | ≤ -4.2 |
| C43U A60C C63U A64G A66C A91C A110C | ≤ -4.2 |
| C43U C87A C116U C131G | ≤ -4.2 |
| C43U G74C C93G U146A | ≤ -4.2 |
| U44A G50A A89U G136U | ≤ -4.2 |
| U44A G68C C103U | ≤ -4.2 |
| G42U G50A G74U C95U | ≤ -4.2 |
| C43U U45G G133U U134C | ≤ -4.2 |
| G42U G50A C118U A122C | ≤ -4.2 |
| U44A G50A A60C A73G C76U C96A G143C U146A | ≤ -4.2 |
| C43A G94A C125U | ≤ -4.2 |
| C43U U82G U101G | -4.04 |
| U44A A52C | -3.94 |
| G42C A52C C54U C96U | ≤ -4.2 |
| C43G C118A | ≤ -4.2 |
| U44A C63G C87U | ≤ -4.2 |
| G42C G62A C76U C87A A89G | ≤ -4.2 |
| C43A G58C | ≤ -4.2 |
| G42C C93G C96U | ≤ -4.2 |
| G42C G86C C116U G141A | ≤ -4.2 |
| G42U C72U A73U G94A | ≤ -4.2 |
| G42C U53A C79U C85G A89U C125U | ≤ -4.2 |

| Variant | polymerase ribozyme fitness (log ratio) |
| --- | --- |
| C43A C76U C95U | ≤ -4.2 |
| G42C C54U C72A G88C A91U A106U | ≤ -4.2 |
| G42C C63A C76U G81A C85A C87U C99A | ≤ -4.2 |
| C43A A52U U56A G83C C93A G143C G152U | ≤ -4.2 |
| U44A C87G C132G | ≤ -4.2 |
| U44A C87G C105G G126U A142C | ≤ -4.2 |
| C43A G59U G100A G133C A147U | ≤ -4.2 |
| U44A C57U G80C G81A G94U | ≤ -4.2 |
| G42C C87U C95U A120U | ≤ -4.2 |
| G42C G80A C93G | ≤ -4.2 |
| C43A C87A C105U A115G | ≤ -4.2 |
| C43U A52C G67A U78C C93A A107G A142C | ≤ -4.2 |
| U44A C51G C57A G84C C105G C118G G141A C149A G152U | ≤ -4.2 |
| G42C U45A C87G | ≤ -4.2 |
| U44A G92A | ≤ -4.2 |
| G42C A73G C76A A91U G92A C129A G152C | ≤ -4.2 |
| G42U A52C A73U G83A | ≤ -4.2 |
| G42C G50A U55A C85A C114U | ≤ -4.2 |
| C43G G59A C93A U151C | ≤ -4.2 |
| C43G C54U G84A C108U G112C | ≤ -4.2 |
| C43U A52G C57U A60C C105A C114U A138G | ≤ -4.2 |
| C43A G59U G68U G92U U134A | ≤ -4.2 |
| C43U G86U C108G | ≤ -4.2 |
| C43G C57U G71A U82G C93G C95U | ≤ -4.2 |

| Variant | polymerase ribozyme fitness (log ratio) |
| --- | --- |
| G42C U77A G140U U145A | ≤ -4.2 |
| C43A C76G C95G U144C | ≤ -4.2 |
| C43U C76A C95U | ≤ -4.2 |
| C43A C95U C118U U130G | ≤ -4.2 |
| G42C C54U G59U A60C U61A A91C C95A | ≤ -4.2 |
| C43U C57A G80C C95A A122U | ≤ -4.2 |
| C43U U45G G59A U139A A142G | ≤ -4.2 |
| C43G C75A G84A G94U G136A | ≤ -4.2 |
| C43A A64G G67A U109G A147G | ≤ -4.2 |
| U44A C85G C103A U104C C131U | ≤ -4.2 |
| U44A G50C G94C G126U | ≤ -4.2 |
| G42U G48C G71A U77C A97C | ≤ -4.2 |
| C43G U56A | ≤ -4.2 |
| U44A G80C G92A G100C G141A | ≤ -4.2 |
| G42C C85A A110G A113U C116G A138U G143C | ≤ -4.2 |
| C43A U61A C85U A106C G126U U148G | ≤ -4.2 |
| G42U G80A C96A C103U | ≤ -4.2 |
| U44A U55A C85A A113C | ≤ -4.2 |
| G42C C63U G100U | ≤ -4.2 |
| G42U A73G C96U G124C U151A | ≤ -4.2 |
| C43U U53G C79G G94A A115C U130A | ≤ -4.2 |
| U44A C54U C57U G88A A91U C96U A115C | ≤ -4.2 |
| C43G G83C U144C | ≤ -4.2 |
| C43U A73U G86A U90A | ≤ -4.2 |

| Variant | polymerase ribozyme fitness (log ratio) |
| --- | --- |
| U44A C51A C57U A60G A89U G92U A147G | ≤ -4.2 |
| U44A C76A G80U C93G | ≤ -4.2 |
| U44A A52U C76G G83C C96U C99U | ≤ -4.2 |
| C43A G58A A60U G86U C114G | ≤ -4.2 |
| G42C C54G A66G C75G G92A C105G C108U U130G G141A | ≤ -4.2 |
| G42U G74C C96U A121G | ≤ -4.2 |
| U44A A98U U102C A113G U146A | ≤ -4.2 |
| U44A C54U U82G C87A C123U | ≤ -4.2 |
| C43U G126C U134C G141U | ≤ -4.2 |
| C43U C54A U77G G83C A106G | ≤ -4.2 |
| U44A U53A G68A | ≤ -4.2 |
| C43G U77A G80A G92A A106C | ≤ -4.2 |
| G42C U61A G88A C95U U104G | ≤ -4.2 |
| U44A G92A C105G C118G A142G | ≤ -4.2 |
| G42U U55G G80A U90C A97U G143C | ≤ -4.2 |
| C43A C118A U127G | ≤ -4.2 |
| G42U A52G G94U U102G | ≤ -4.2 |
| G42C G92A | ≤ -4.2 |
| U44A U109G | ≤ -4.2 |
| G42C A107C A120C U134A A150C | ≤ -4.2 |
| C43U C85G A150G | ≤ -4.2 |
| U44A G88A C118U G141U U146C A150G | ≤ -4.2 |
| C43A C87A A89G C93U | ≤ -4.2 |
| C43U C93G C118U U148G | ≤ -4.2 |

| Variant | polymerase ribozyme fitness (log ratio) |
| --- | --- |
| G42C U90C | ≤ -4.2 |
| G42C C87A C103U U135C | ≤ -4.2 |
| C43U A89U G94U C105G C132A U151C | ≤ -4.2 |
| C43A G58C C99G C118G | ≤ -4.2 |
| C43A C85A | ≤ -4.2 |
| G42C U53A C93U A147U | ≤ -4.2 |
| C43U C54G G74U G88U A89U G100U A121U | ≤ -4.2 |
| G42U C87A C118G | ≤ -4.2 |
| U44A U53A C85G G88C C118A | ≤ -4.2 |
| C43U C93G U109G | ≤ -4.2 |
| C43G A47U G74A C93A | ≤ -4.2 |
| C43A A52C C85U G124A | ≤ -4.2 |
| U44A G92A A115U C118U | ≤ -4.2 |
| C43U G46A U90C C95U A106U | ≤ -4.2 |
| C43U C85A C96U U146A | ≤ -4.2 |
| C43U G67A G86U C93U A142C | ≤ -4.2 |
| C43G G84U G92U U134G | ≤ -4.2 |
| C43U U61A | ≤ -4.2 |
| U44A U144G U151G | ≤ -4.2 |
| C43A U61G G62A U90G C96U C116G C125U | ≤ -4.2 |
| C43G U44A G58A G88U C95U U135G | ≤ -4.2 |
| G42C A60G C123G G126C U127C | ≤ -4.2 |
| U44A G50A C57U C72U G92A G141U G143U A150G | ≤ -4.2 |
| U44A G84A C85G C95G C99U | -3.94 |

| Variant | polymerase ribozyme fitness (log ratio) |
| --- | --- |
| G42U A52C A60C C85A C105U A107G | ≤ -4.2 |
| C43A U144G | ≤ -4.2 |
| C43G A52U | ≤ -4.2 |
| C43U G84U | ≤ -4.2 |
| C43U A150U | ≤ -4.2 |
| G42U C75U U77G U78G C85U C93U C116U G140C | ≤ -4.2 |
| G42C G48U U90C C93G C96A | ≤ -4.2 |
| G42C A66C | ≤ -4.2 |
| G42C C93A | ≤ -4.2 |
| G42C C93U | ≤ -4.2 |
| C43U A64U G92U A107C U139G | ≤ -4.2 |
| C43U U61G G94U C116U U144G C149G | ≤ -4.2 |
| G42C U55G G68C A106U | ≤ -4.2 |
| G42C A73U C85U G152U | ≤ -4.2 |
| U44A G67A U77G U78G C87A C95G | ≤ -4.2 |
| G42C G59U A98U | ≤ -4.2 |
| C43U G50C C85A C87G C95U G128U U146A | ≤ -4.2 |
| G42C G65C G68C C129A | ≤ -4.2 |
| G42C A64G G88A G94U C114G | ≤ -4.2 |
| C43U A73G C96U A119U C125G G136A | ≤ -4.2 |
| C43A C96G C108U | ≤ -4.2 |
| G42C U82G C85U C99A A147C | ≤ -4.2 |
| C43G C54G A91C G133C U139G | ≤ -4.2 |
| C43G U56A G112A U134C | ≤ -4.2 |

| Variant | polymerase ribozyme fitness (log ratio) |
| --- | --- |
| G42C G46A A91U C125A U148A | ≤ -4.2 |
| C43G C75U G83U U102G | ≤ -4.2 |
| C43A G92C A115C G141C | ≤ -4.2 |
| U44A G46C C87U | ≤ -4.2 |
| C43A G58C G81C C95U C96A A122U G126C A142C | ≤ -4.2 |
| C43U U56A C87U U109G | ≤ -4.2 |
| U44A A49G A97G U101G | ≤ -4.2 |
| C43U G46C C54U C72U C79U C87A G92C C103U G140U U145G | ≤ -4.2 |
| C43U G100C | ≤ -4.2 |
| G42U A47C U135A | ≤ -4.2 |
| U44A C85G C105U U139A | ≤ -4.2 |
| C43U U45A G48C C54U C87U U102G | ≤ -4.2 |
| C43G U55A C96A A98C A121U | ≤ -4.2 |
| G42C G46A G50C G83C G94U U139G G140A G141C U144A | ≤ -4.2 |
| C43A U77C C87A G88U A106U | ≤ -4.2 |
| G42U G80A U104C | ≤ -4.2 |
| C43A C95A G141U U145G | ≤ -4.2 |
| U44A U55A U56G C63G C93G A115U | ≤ -4.2 |
| C43U U78A C85A A115C | ≤ -4.2 |
| G42U U55C C116G | ≤ -4.2 |
| C43A C85U A91C C95U G140C | ≤ -4.2 |
| G42U G62A U102G C123A A137U G140C | ≤ -4.2 |
| C43U C103G A122C | ≤ -4.2 |
